# Assay results as given in PubChem BioAssay (NCI).
# Where “and” joins values, the source holds several entries; their conditions need not be identical. Identical values can stand only once.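 Where inhibition never reached the appropriate level, the endpoint shown equals the highest concentration tested. Otherwise, values were interpolated linearly from a five-concentration, 48-hour dose response in 96-well plates. GI50 = concentration required for 50% inhibition of growth. TGI: total growth inhibition.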 Peptide text beside a SMILES is read from it. * marks the point of attachment. Cbz = O=C(OCc1ccccc1)*
# System: NCI-H322M lung
# Assay: NCI-60 cell line screen, 48 h
SMILES,GI50 [µM],TGI
O=C1CCC/C=C\C[C@H]2C=CC(=O)/C2=C/C[C@H](C/C=C\CC(F)(F)F)O1,0.877,3.18 µM
C=CCN1CCC(O)(c2cc(C(=O)OCC)[nH]c2-c2cc(C)no2)C1 (centres undefined),,> 100 µM
Cc1cccc2c1Sc1ccccc1C2NC(=O)CCN(C)C (centres undefined),,> 100 µM
COc1cc2c3c(c1OC)-c1cc4c(cc1CC3(C#N)N(C(=O)c1ccccc1)CC2)OCO4 (centres undefined),,> 100 µM
NCC(=O)Nc1ccc(S(=O)(=O)O)c2cc(S(=O)(=O)O)cc(S(=O)(=O)O)c12,,> 100 µM
COc1cc(/C=C\c2cc(OC)c(OC)c(OC)c2)cc(N/C=C\C(=O)c2cc(OC)c(OC)c(OC)c2)c1OC,7.71,> 100 µM
COc1ccc(N=NC(=O)NC(CC(C)C)C(=O)NC(C)C(=O)O)cc1 (centres undefined),,> 100 µM
CC(=O)NC1=N/C(=C\c2ccc(Cl)cc2)C(=O)N1/C=C1\C(=O)Oc2ccccc2C1=O,,> 100 µM
C[C@H]1C(=O)O[C@@H]2CCN3CC=C(COC(=O)[C@](C)(O)[C@@]1(C)O)[C@H]23,,> 100 µM
CC(=O)c1c(O)ccc2c1c1c(n2C)C(=O)c2ccccc2C1=O,,> 100 µM
O=C1c2cccc3cccc(c23)C(=O)N1CCCCCN1CCN(CCCCCOc2ccc(-c3nc4ccc(N5CCOCC5)cc4[nH]3)cc2)CC1,31.3,> 65.1 µM
CC1(C)OC2C(O)C(CO)OC2(C(F)F)O1 (centres undefined),,> 100 µM
CC1OC(OC2C(OC(=O)[C@]34CCC(C)(C)C[C@H]3C3=CC[C@@H]5[C@@]6(C)CC[C@H](OC7OC(CO)C(O)C(O)C7OC7OC(CO)C(O)C(O)C7O)C(C)(C)[C@@H]6CC[C@@]5(C)[C@]3(C)CC4)OCC(O)C2O)C(O)C(OC2OCC(O)C(O)C2O)C1OC1OCC(O)C(OC2OCC(O)C(O)C2O)C1O (some centres undefined),,18.6 µM
FC(F)(F)c1ccc2c(c1)nc(-c1ccc(Cl)cc1)n2CC1CCCN2CCCCC12 (centres undefined),,25.8 µM
Nc1ccn([C@H]2CO[C@@H](CO)[C@@H]2O)c(=O)n1,,> 100 µM
Cn1c2ccccc2c2ncc3[nH]c4ccccc4c3c21,,44.4 µM
Oc1ccc2ccccc2c1N=Nc1ccc(Br)cc1,,> 100 µM
CCCOC(=O)CNC(=O)OC(C)(C)C,,> 100 µM
Cn1cc(-c2csc(-c3c[nH]c4ccc(Br)cc34)n2)c2cnccc21,3.64,25.3 µM
O=C(Nc1ccc([N+](=O)[O-])cc1[N+](=O)[O-])C(=O)C(C(=O)c1ccc2ccccc2c1)C1OC(=O)c2ccccc21 (centres undefined),,50 µM
C=C1CC/C=C(\C)CCC[C@H](C)[C@@H](O)[C@@H]2OC(=O)C(=C)[C@@H]2C[C@H]1O,,69.8 µM
CNCCCn1c2ccccc2c2c3c(c(-c4ccsc4)cc21)C(=O)NC3=O,,2.25 µM
C[Si](C)(C)/C(Br)=C\CCN1C(=O)CCC1=O,,> 100 µM
Cc1ccc(Cl)c2c(=O)c3ccc(N)cc3sc12,,> 100 µM
CN(C)C(=O)/C=C/c1c[nH]c(=O)[nH]c1=O,,> 500 µM

SMILES,GI50 [µM],TGI
COC1(OC)CCCc2c1no[n+]2[O-],,> 100 µM
CCOC(=O)c1c(-c2ccc(OC)cc2)c(C#N)c2c(C#N)c(N)nn2c1N,7.28,> 100 µM
CCc1c(Cl)c(C)cc(O)c1Cl,,> 100 µM
Cc1cc(/N=C/c2ccc(F)cc2)n(-c2ccccc2)n1,,> 100 µM
CCOC1c2cc(C(C)C)c(O)c(O)c2[C@@]23CCCC(C)(C)C2C1OC3=O (some centres undefined),,> 100 µM
Cc1cc2cc3c(=O)[nH]c(=O)[nH]c3nc2cc1C,,> 100 µM
c1ccc2c(c1)SCCC2NC1=NCCO1 (centres undefined),,> 100 µM
COC(=O)c1ccc2c(c1)/C(=C\c1cc(Br)c(O)c(Br)c1)C(=O)N2,9.4,> 25 µM
CC(Oc1ccc(OCC2CCCCC2)cc1)C(=O)OCC(=O)c1ccc(-c2ccccc2)cc1 (centres undefined),,> 100 µM
CCOC(=O)[C@H](C)OC(=O)[C@@](C)(NC(=O)c1ccccc1C(=O)OC)[C@@H]1NC=C(C(=O)OC)CS1,,> 100 µM
CC(Oc1ccc(Cl)cc1Cl)C(=O)NN1C(=O)CSC1c1ccccc1 (centres undefined),,> 100 µM
O=C1c2cc3c(cc2-c2c1c1cc(Cl)c(Cl)cc1c(=O)n2C[C@H](O)CO)OCO3,0.028,1.47 µM
[N-]=[N+]=NCc1nc(N)c2c3c(sc2n1)CCCC3,,32.6 µM
CN(CCN(C)C(=O)CCn1cc(F)c(=O)[nH]c1=O)C(=O)CCn1cc(F)c(=O)[nH]c1=O,,> 100 µM
NCCCn1c2c(c3ccc([N+](=O)[O-])cc3c1=O)C(=O)c1ccccc1-2,0.292,1.42 µM
Cc1ncc([N+](=O)[O-])n1CCNCCCCn1ccnc1[N+](=O)[O-],,> 100 µM
COC(=O)NC(C(F)(F)F)(C(F)(F)F)P1(=O)OCCCO1,,> 100 µM
COc1cccc2c1C(=O)c1c(O)c3c(c(O)c1C2=O)C[C@@](O)(/C(C)=N/NC(=O)c1ccc(Cl)cc1)C[C@@H]3OC1CC(N)C(O)C(C)O1 (some centres undefined),0.706,3.75 µM
Cn1c(=O)c(Oc2ccc(F)cc2)cc2cnc(NC3CCOCC3)nc21,> 25,> 25 µM
C=CN1C(=O)[C@H](Oc2ccccc2)[C@@H]1c1ccccc1,,> 100 µM
C#Cc1nc(Nc2cc(C)[nH]n2)c2ccccc2n1,0.86,3.24 µM
COC(=O)c1nsc(OC)c1Cl,,> 100 µM
C=C(Nc1nc2ccc(C)cc2s1)C(=O)C(CC)C(=O)C(CC)CC1C(=O)NC(=O)NC1=O (centres undefined),,> 100 µM
CC1=C(/C=C/C(C)=C/C=C/C(C)=C/C(=O)OC2CC(n3cc(F)c(=O)[nH]c3=O)OC2CO)C(C)(C)CCC1 (centres undefined),,20.1 µM
[N-]=[N+]=CC(=O)OC1Cc2ccccc2C1,,> 100 µM

SMILES,GI50 [µM],TGI
CCC(=O)O[C@H]1CC[C@H]2[C@@H]3CCC4=C/C(=N/OC(=O)c5cccc6cc7ccccc7nc56)CC[C@]4(C)[C@H]3CC[C@]12C,,> 100 µM
CC1(Br)Cc2ccccc2C1=O (centres undefined),,25.7 µM
CC(C)=CC1CC(=[N+]=[N-])C(=O)C1(C)C (centres undefined),,> 100 µM
CCc1nc(N)nc(N)c1-c1ccc([N+](C)(C)C)cc1,,> 100 µM
COc1ccc(-c2nnc(N3CCN(C(=O)CN4CCN(c5ccccc5)CC4)CC3)nc2-c2ccc(OC)cc2)cc1,> 100,> 100 µM
O=C(CC(C(=O)c1ccsc1)c1ccccc1)c1ccccc1 (centres undefined),,> 100 µM
Cc1cc(C(F)(F)F)cc(-n2nc(NS(=O)(=O)c3cc(C)c(Cl)cc3S)nc2N)n1,,> 100 µM
C=COC(=O)N[C@H]1CCc2cc(OC)c(OC)c(OC)c2-c2ccc(SC)c(=O)cc21,,6.46 µM
O=C(/C=C/C=C/c1ccccc1)c1ccccc1,,41.2 µM
CN(C)C/C=C/C(=O)Nc1cc2c(Nc3ccc(F)c(Cl)c3)ncnc2cc1O[C@H]1CCOC1,,11.8 µM and 3.34 µM
CN(C)CCNC(=O)c1cccc2c(Nc3ccc(S(=O)(=O)N=C(N)N)cc3)c3ccccc3nc12,,> 100 µM
CCCC(=O)N1CCN(c2ccc3c(c2)OC(C)O3)CC1 (centres undefined),,> 100 µM
CCOC(=O)c1sc2c(c1OC(=O)c1ccc(OC)cc1)c(=O)n(-c1ccccc1)c(=S)n2-c1ccccc1,,> 100 µM
O=C(Nc1ccc(Cl)c(C(F)(F)F)c1)c1ccc(NC2=C(Cl)C(=O)N(Cc3ccccc3)C2=O)cc1,17.7,32.8 µM
COc1ccc(-c2nc3ncccn3c2-c2ccc(SC)cc2)cc1,,6.1 µM
COC1CCCCN1C(=O)c1ccccc1 (centres undefined),,> 25.3 µM
CN(C)C(=S)Sc1ccc([N+](=O)[O-])cc1[N+](=O)[O-],14.8,28.2 µM
Cn1c2ccccc2c(=O)c2cccc(C(=O)NC(CS)C(=O)O)c21 (centres undefined),,> 100 µM
COC(C)(C)OCCN1CCN(CCN2C3=C(C=C(C(C)=O)C3)Sc3ccccc32)CC1,,68.6 µM
O=c1nc(N2CCNCC2)oc2cc(Cl)oc(=O)c12,,40 µM
COc1ccc(/C(=C\C=C(C#N)C#N)Sc2nc3ccccc3s2)cc1,7.85,16.8 µM
CCOC(=O)/C=C/c1ccc(C#Cc2ccccc2)cc1,> 100,> 100 µM
COc1ccc(-c2cc3ccccc3oc2=O)cc1OC,,> 100 µM
COc1cc(/C=C/C(=O)Oc2ccc(NC(C)=O)cc2)ccc1C(=O)O/C=C/c1ccccc1,,> 100 µM
COC12C(COC(N)=O)C3=C(C(=O)C(C)=C(N)C3=O)N1CC1C2N1C (centres undefined),,36.6 µM

SMILES,GI50 [µM],TGI
C[C@@]12CCC[C@@](C)(C(=O)O)C1CC[C@]13CC(=O)[C@](CO)(C1)[C@@H](O)CC32 (some centres undefined),> 100,> 100 µM
COC(=O)c1s/c(=N\C(=S)N(C)C)n(-c2ccc(Cl)cc2)c1C(=O)OC,,> 100 µM
CC(C)(C)OC/C=C(/CO)[C@@H]1C=C[C@H](O)C1,,> 100 µM
CN(C)/N=C1/CCC(C(F)(F)F)(C(F)(F)F)O1,,> 100 µM
CCOC(=O)C1SC(=Nc2ccccc2)N=C1C (centres undefined),,> 100 µM
CC1(C)N=C(N)N=C(N)N1c1ccc(CCCCc2ccc(Cl)c(S(=O)(=O)F)c2)c(Cl)c1,5.06,21.3 µM
CCOC(=O)/C=C(\C(=O)OCC)n1ccc(=O)n(Cc2cn(CCCCOC(C)=O)nn2)c1=O,,40 µM
CC(NC(=O)C(NC(=O)OCc1ccccc1)C(C)C)C(=O)NCC(=O)O (stereo not drawn) (Cbz-Val-Ala-Gly-OH; configuration not given here),,> 100 µM
C[C@H]1CN[C@@H]2[C@@H](C)[C@H]3[C@@H](C[C@H]4[C@@H]5CC[C@H]6C[C@@H](N)CC[C@]6(C)[C@H]5CC[C@]34C)O[C@@]2(O)C1,,7.84 µM
COc1cc(/C=C/C(=O)c2cccc(-n3cc(-c4ccc(Cl)cc4)[nH]c3=O)c2)ccc1O,5.52,22.4 µM
COc1ccc(C(O)(CCC(C)C)C(CN2CCOCC2)c2ccc(Cl)cc2)cc1 (centres undefined),20.9,43.7 µM
COC(=O)C(C(=O)Cc1ccccc1[N+](=O)[O-])C(=O)OC,,> 100 µM
CN(C)CCNC(=O)c1cccc2ccc(-c3ccc(F)cc3)nc12,,22.5 µM
CC(C)(C)[Si](C)(C)OC1C(=O)C[C@H]2CCCC[C@@H]12 (some centres undefined),,> 100 µM
C=C1C(=O)OC2CC(C)C(C(O)CC(C)O)=CCC12 (centres undefined),,> 83.7 µM
O=S(=O)(c1ccccc1)N1N=C2c3ccccc3CCC[C@H]2C1c1ccccc1 (some centres undefined),,> 100 µM
COc1ccc(C2=C(c3ccc(OC)cc3)C(=O)N3CCCC3C2)cc1 (centres undefined),17.7,> 100 µM
N#Cc1c(-c2ccc(Cl)cc2)c(C#N)c(=O)n(NS(=O)(=O)c2ccccc2)c1O,,> 100 µM
NCCc1cc(O)c(O)cc1O,,> 78.7 µM
CC12CCC3c4ccc(O)cc4CCC3C1C/C(=N\O)C2O (centres undefined),,> 100 µM
C=CCC1(CN(C)C)CC/C(=C\c2ccc(Cl)cc2)C1=O (centres undefined),,> 100 µM
COc1ccc(/C=C(\C(C)=O)C(=O)Nc2ccccc2)cc1,,> 100 µM
COc1ccc(/C(Cl)=C(\C=O)c2ccc(OC)cc2)cc1,,> 100 µM
